Experimental data reported in publication PMC6919601, “Identification of Plasmodium dipeptidyl aminopeptidase allosteric inhibitors by high throughput screening” (PLoS ONE, 2019).
“And” between values parts separate entries of the source, which are not always exact repeats. Equal entries are not always repeated. In all, about 110,000 compounds went through this assay and about 230 (0.21%) showed an effect of 50% or more. Some of the results follow.

These compounds were tested against DPAP1 (Plasmodium falciparum, UniProt Q8IIJ9) (assay: primary screen, percent inhibition; read by cleavage of a fluorogenic dipeptide substrate; higher = more effect of the substance).
Parameters: species or system P. falciparum D10 trophozoite lysates; single well
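Also: 30 min substrate incubation versus DMSO and 10 µM JCP410 controls.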

DPAP1, sequence (Q8IIJ9 whole entry, looked up): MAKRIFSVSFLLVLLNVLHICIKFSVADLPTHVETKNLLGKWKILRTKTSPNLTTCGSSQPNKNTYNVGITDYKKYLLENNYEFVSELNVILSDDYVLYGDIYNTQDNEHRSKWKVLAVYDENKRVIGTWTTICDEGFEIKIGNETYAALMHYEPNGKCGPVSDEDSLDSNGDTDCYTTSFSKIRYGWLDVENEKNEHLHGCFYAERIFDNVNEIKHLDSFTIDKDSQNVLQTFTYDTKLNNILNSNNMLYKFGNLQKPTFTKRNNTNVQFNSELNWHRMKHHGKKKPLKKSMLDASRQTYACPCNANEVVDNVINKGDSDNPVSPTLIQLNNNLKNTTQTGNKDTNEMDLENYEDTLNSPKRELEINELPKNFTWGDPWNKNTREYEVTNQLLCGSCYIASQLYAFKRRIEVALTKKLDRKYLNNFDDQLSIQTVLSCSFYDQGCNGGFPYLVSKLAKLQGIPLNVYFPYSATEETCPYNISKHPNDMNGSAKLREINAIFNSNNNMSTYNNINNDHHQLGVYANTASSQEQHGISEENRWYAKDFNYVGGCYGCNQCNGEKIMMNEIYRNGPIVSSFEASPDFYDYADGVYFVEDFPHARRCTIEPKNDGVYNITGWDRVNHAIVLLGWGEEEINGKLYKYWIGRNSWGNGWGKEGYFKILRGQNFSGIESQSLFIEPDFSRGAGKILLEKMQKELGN

SMILES | % Inhibition @ 10 uM
O=C(NCCN1CCOCC1)c1cnn(-c2ccccc2)c1-n1cccc1 | 0.137%
O=C(O)c1ccc(NC(=O)c2c(C(=O)O)cccc2[N+](=O)[O-])cc1 | -3.16%
CCOC(=O)c1cnn(-c2nc(C)cc(C)n2)c1N | -0.769%
COc1ccccc1-c1cc(C(=O)Nc2cnn(Cc3ccccc3C)c2)no1 | -0.601%
O=C(O)c1cc(N2C(=O)C3C4C=CC(C4)C3C2=O)ccc1Cl (centres unmarked) | -6.7%
CC(C)(C)OC(=O)NCC1CCN(S(=O)(=O)Cc2ccccc2)CC1 | 0.635%
CC1=C(C(=O)Nc2cccc(C)c2C)C(c2ccc(C)cc2)NC(=O)N1 (centres unmarked) | -3.39%
C=CCC1(N(C(C)=O)c2ccccc2)CCCCC1 | -1.05%
CCOC(=O)c1c(C)[nH]c(C)c1S(=O)(=O)NCc1ccc(C)cc1 | 0.358%
CCc1sc2ncnc(N(C)C)c2c1-c1ccccc1 | 2.18%
Cc1ccccc1OCC(=O)Nc1sc(Cc2ccccc2)c(C)c1C(N)=O | 2.03%
CCCCCNc1nc(N)nc(-c2cc(Cl)ccc2OC)n1 | 0.317%
O=C(CN1CCCC1)Nc1c(C(=O)C2CC2)oc2ccccc12 | -2.07%
CCOC(=O)N1CCN(Cc2nc3c(c(=O)[nH]c(=O)n3C)n2Cc2ccccc2)CC1 | -1.21%
O=C(Nc1ccn(Cc2ccc(Cl)cc2)n1)c1ccc2c(c1)OCO2 | -1.88%
CCN(CC)c1ccc(NC(=O)c2cccc(C)c2)cc1 | 1.28%
CC1CCN(CC(C)OC(=O)c2ccco2)CC1 (centres unmarked) | -0.0735%
O=S(=O)(Nc1cccc(C(F)(F)F)c1)c1ccc(F)cc1 | 1.9%
CCOc1ccc(CNCc2c(C(=O)O)[nH]c3cc(C)ccc23)cc1 | 1.53%
COc1cc(C(=O)Nc2ccc(Oc3ccccc3)cc2)cc(OC)c1OC | 2.43%
CN(Cc1ccccc1)C(=O)Cc1ccccc1 | 1.83%
CCCCO/C(O)=C1/C(C)=Nc2ncnn2C1c1ccccc1C (centres unmarked) | 4.23%
COc1ccc(-c2cc(-c3ccc(OC)cc3O)[nH]n2)cc1 | -2.32%
Cc1csc(NC(=O)CSc2nc3c(c(C(F)(F)F)c2C#N)CCC3)n1 | 11.2%
Cc1nc2cc(NC(=O)c3ccco3)ccc2n1C | -0.643%

SMILES | % Inhibition @ 10 uM
Cc1ccc(Cn2c(C(=O)O)c(CNCc3ccccc3C)c3ccc(C)cc32)cc1 | 8.11%
CC1CCC(NC(=O)c2cccc3c2-c2ccccc2C3=O)CC1 (centres unmarked) | 2.99%
Cc1ccn2c(NC(=O)COc3ccccc3)c(-c3ccc(F)cc3)nc2c1 | 2.83%
COc1cccc(OC)c1C(=O)N1CC(C)OC(C)C1 (centres unmarked) | 1.83%
CCOc1ccccc1NC(=O)COc1c(C)cccc1C | -6.08%
Cc1cc(C)c(C)c(S(=O)(=O)NCC(=O)Nc2ccccc2F)c1C | -1.55%
Fc1ccccc1-c1nn2c(Cn3nnc4ccccc43)nnc2s1 | 1.25%
CC(C)C[C@@H](C(=O)NCC#N)c1cccc(-c2ccc(S(=O)(=O)N3CCN(C(C)(C)C)CC3)s2)c1 | -3.04%
O=C(Nc1ccc(S(=O)(=O)Nc2ccccc2C(F)(F)F)cc1)c1ccc(F)cc1 | -0.0619%
CN(C)CCCNC(=O)/C(=C\c1ccc(Cl)cc1)NC(=O)c1ccccc1 | 1.27%
CCC(C)N/C=C1/C(=O)NC(=O)N(c2ccccc2C)C1=O (centres unmarked) | -5.65%
Cc1ccc2[nH]c(C)c(CCn3c(C)nc(=O)c(-c4ccccc4)c3C)c2c1 | 4%
CC1=C(C#N)C(=O)N(CCc2ccccc2)C(=O)/C1=C\NC(=O)Nc1ccccc1Br | 0.726%
COC(=O)C(CC(C)C)NC(=O)Nc1ccccc1 (centres unmarked) | -11.3%
Cc1cccc(Cn2c(SCc3ccc(C(=O)NCc4cccnc4)cc3)nc3cccnc32)c1 | 2.97%
CCOCCn1c(-c2ccc(OC)cc2)nc2ccccc21 | -8.28%
Cc1ccc(CCNC(=O)CCc2nc3ncccc3c(=O)n2Cc2ccccc2)cc1 | -0.72%
CCOc1ccc(C(=O)Nc2cccc(OC)c2)cc1 | 0.00519%
COc1ccc(C2C(C#N)=C(N)OC3=C2C(=O)CCC3)cc1COc1ccccc1Cl (centres unmarked) | -1.84%
CN(C)CCNc1nc2c(c(=O)[nH]c(=O)n2C)n1CCc1ccccc1 | -3.41%
N#CC1=C(N)OC2=C(C(=O)CCC2)C1Cc1ccccc1 (centres unmarked) | 0.565%
C=C(C)C[C@H]1CC=C[C@H](CC(=C)C)N1CCO | -4.8%
CC(C)C[C@H](NC(=O)c1ccc(NC(=O)OCCc2ccccn2)cc1)C(=O)NCC#N | -7.36%
COCC(=O)n1nc(-c2cccnc2)nc1NCc1ccccc1 | -2.92%
COc1ccc(-c2cn3nc(N4CCCC(C(=O)N5CCN(C)CC5)C4)sc3n2)cc1 (centres unmarked) | 8.55%

SMILES | % Inhibition @ 10 uM
Cc1cc2nc(C)n(CCOc3ccccc3C)c2cc1C | -2.88%
CCCS(=O)(=O)c1c(S(=O)(=O)CCC)c2cnccn2c1C(=O)c1ccc(C)cc1 | -4.24%
COC(=O)C1=C(O)/C(=C\c2ccc(Cl)cc2Cl)N=C1C | -0.711% and 5%
O=[N+]([O-])c1ccc2nc3c4ccccc4n(Cc4ccccc4)c3cc2c1 | 10.2%
c1ccc(CCNC2CCCc3c2[nH]c2ccc(C4CCCCC4)cc32)cc1 (centres unmarked) | 9.41%
CCOC(=O)N1CCC(N(CCc2ccccc2)Cc2ccccc2)CC1 | -3.6%
CC1(C)CC(=O)C2=C(C1)OC(n1cccc1)=C(C#N)C2c1ccccc1 (centres unmarked) | 1.76%
COc1ccc(Cl)cc1N1C(=O)C(Cl)=C(N2CCCCC2)C1=O | 2.36%
O=C(CCC(=O)N1CCSc2ncccc21)NCCc1cccs1 | -1.23%
CCOC(=O)c1c[nH]nc1N | -1.99%
COc1ccc2cc(/N=C/c3nc(-c4ccc(C)cc4)oc3O)cnc2c1 | 2.11%
COc1ccc(C(=O)N/C(=C\c2ccc(Cl)cc2)C(=O)NCCCN(C)C)cc1 | -1.93%
CCCCN(CC)CCCNC(=O)C1c2ccccc2C(=O)N(C)C1c1c[nH]c2ccccc12 (centres unmarked) | 2.35%
Cc1ccc(S(=O)(=O)N(CC(=O)NCc2ccco2)c2cc(C)cc(C)c2)cc1 | -3.95%
CN(CCc1ccccn1)c1ncnc2c1cnn2-c1ccc(Cl)cc1 | -2.49%
Cc1ccc(NC(=O)C2CCCN(S(=O)(=O)c3cccs3)C2)cn1 (centres unmarked) | 1.2%
Cn1c(=O)c2c(-c3ccccc3)n(-c3ccccn3)cc2n(C)c1=O | 2.02%
O=C(NCc1ccc2c(c1)OCO2)c1nc(Cn2cc(Br)cn2)no1 | 1.84%
CCC1(C)Cc2ccccc2-c2nc(S)nc(O)c21 (centres unmarked) | -6.29%
CC(=O)N/C=C1/C(=O)NC(=O)N(c2cccc(C)c2)C1=O | -0.736%
CCC(C)C(NCc1cccc(Br)c1)C(=O)O (centres unmarked) | -1.99%
CCOC(=O)C1=C(CS(=O)(=O)c2ccccc2)NC(=O)NC1c1cccc(OC)c1 (centres unmarked) | 2.85%
CCOC(=O)c1cc2c(=O)n3ccccc3nc2n(C)/c1=N\C(C)=O | 2.84%
C(=N\N=C1c2ccccc2-c2ccccc21)/c1cccnc1 | 4.1%
CCOc1ccccc1-n1c(C)cc(/C=C2/C(=N)N3C(=NC2=O)SN=C3S(C)(=O)=O)c1C | 0.163%

SMILES | % Inhibition @ 10 uM
CCc1ccc(/C=C(/NC(=O)c2ccccc2)C(=O)O)s1 | 6.31%
COc1cccc(C2=CC(c3cc(OC)ccc3OC)n3nnnc3N2)c1 (centres unmarked) | -7.08%
Cc1n[nH]c(C)c1N1C(=O)c2cccc3c(N)ccc(c23)C1=O | 2.46% and -0.116%
NC(Cc1c[nH]c2ccccc12)C(=O)NCc1ccccc1 (centres unmarked) | -4.16%
COc1cc(Br)cc2cc(-c3nc4ccccc4s3)c(=O)oc12 | -3.53%
CCOC(=O)c1cc(S(=O)(=O)NC2CCCc3ccccc32)cn1C (centres unmarked) | 2.32%
CC1CCCCN1S(=O)(=O)c1ccc(F)cc1 (centres unmarked) | 5.35%
Cc1cc(-c2nc3ccccc3o2)c2ccccc2n1 | -6.12%
CC(=O)Nc1ccccc1NC(C)=C1C(=O)N(C)C(=O)N(C)C1=O | -6.27%
C=CCOC(=O)C1=C(C)N=C2CCCC(O)=C2C1c1ccccc1OCCCC (centres unmarked) | 18%
CC12CN3CC(C)(CN(C1)C3c1cccnc1)C2=O (centres unmarked) | 2.51%
Cc1nn(Cc2ccc(C(=O)Nc3ccc(CC#N)cc3)cc2)c(C)c1Cl | 1.35%
COc1ccc(CCNc2ncnc3c2cnn3-c2ccc(Cl)cc2)cc1OC | 6.89%
Cc1c(C)n(Cc2ccccc2)c2ccc(C(=O)N3CCN(c4ncccn4)CC3)cc12 | 4.27%
COc1cc(C(=O)N2CCC3(CC2)N=C(c2ccccc2)C(=O)N3)cc(OC)c1OC | -3.22%
CC1=NN(C(=O)c2ccccc2-n2cccc2)C(O)(C(F)(F)F)C1 (centres unmarked) | 0.709%
CN1C(=O)/C(=C\c2cc(Cl)ccc2O)S/C1=N/c1ccccc1 | 15%
COc1ccc(Br)cc1CN(C)CCN(C)C | -0.833%
O=C(Cn1ncc2c3ccccc3n(Cc3ccccc3)c2c1=O)NCCc1c[nH]c2ccccc12 | 0.137%
COc1ccc(CCNS(=O)(=O)c2c(C)noc2C)cc1OC | 0.675%
C/C(=N\c1cccc2ccccc12)C1=C(O)CC(C)(C)CC1=O | -5.34%
CCOC(=O)c1c(CN2CCCCC2)n(C)c2cc(Br)c(O)c(CN(C)C)c12 | 0.778%
Cc1[nH]nc2c1C(c1c[nH]nc1-c1ccc(F)cc1)C(C#N)=C(N)O2 (centres unmarked) | -1.98%
